Measured values published in article PMC4336329 (PLoS ONE, 2015).
In all, about 310,000 compounds went through this assay and about 14,000 (4.5%) showed an effect of 50% or more. The effect is printed as a negative number. The list shows a part of the results.

Each molecule was assayed against human ether-à-go-go-related gene (hERG) potassium channel (human, UniProt Q12809) (assay: primary screen, population patch clamp on CHO cells stably expressing hERG).
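Further: peak tail current of the secondary pulse compared with the same well before compound.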

Sequence of human ether-à-go-go-related gene (hERG) potassium channel (Q12809 whole entry, looked up): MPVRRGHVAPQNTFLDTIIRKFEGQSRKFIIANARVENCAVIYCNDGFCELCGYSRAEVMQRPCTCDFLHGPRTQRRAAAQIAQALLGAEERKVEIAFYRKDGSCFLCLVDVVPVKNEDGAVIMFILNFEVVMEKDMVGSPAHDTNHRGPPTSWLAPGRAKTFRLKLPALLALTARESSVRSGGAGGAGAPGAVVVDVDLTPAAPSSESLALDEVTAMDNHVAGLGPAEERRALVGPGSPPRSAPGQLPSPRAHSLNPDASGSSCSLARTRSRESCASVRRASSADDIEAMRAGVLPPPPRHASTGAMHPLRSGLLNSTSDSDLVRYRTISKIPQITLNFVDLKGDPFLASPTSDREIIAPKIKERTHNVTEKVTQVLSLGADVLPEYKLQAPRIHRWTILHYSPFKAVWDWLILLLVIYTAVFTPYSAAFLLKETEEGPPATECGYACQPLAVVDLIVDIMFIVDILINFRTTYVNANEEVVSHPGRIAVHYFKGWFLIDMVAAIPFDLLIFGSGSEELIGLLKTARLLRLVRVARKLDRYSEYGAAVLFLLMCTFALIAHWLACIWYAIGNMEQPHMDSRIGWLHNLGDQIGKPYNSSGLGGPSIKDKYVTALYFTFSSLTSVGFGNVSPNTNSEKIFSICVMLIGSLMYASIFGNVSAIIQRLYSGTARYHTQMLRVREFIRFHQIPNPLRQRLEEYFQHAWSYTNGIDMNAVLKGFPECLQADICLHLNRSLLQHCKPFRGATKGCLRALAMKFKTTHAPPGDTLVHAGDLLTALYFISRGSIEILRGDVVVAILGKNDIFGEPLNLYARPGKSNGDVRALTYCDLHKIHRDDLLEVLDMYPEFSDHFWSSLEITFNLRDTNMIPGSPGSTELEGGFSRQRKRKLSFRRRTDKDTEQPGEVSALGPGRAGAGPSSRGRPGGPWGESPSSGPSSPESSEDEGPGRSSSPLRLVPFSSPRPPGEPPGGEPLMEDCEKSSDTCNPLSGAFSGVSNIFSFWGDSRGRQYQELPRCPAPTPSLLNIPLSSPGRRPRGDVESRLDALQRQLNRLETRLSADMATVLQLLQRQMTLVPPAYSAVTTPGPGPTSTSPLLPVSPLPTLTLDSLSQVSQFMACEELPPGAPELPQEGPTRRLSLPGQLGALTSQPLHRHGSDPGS

SMILES | hERG current change (%, negative = inhibition) at 10uM [%]
Cc1nn(-c2ccccc2)c2c1C(c1ccc([N+](=O)[O-])cc1)N1C(=N2)C(=O)Nc2ccccc21 (stereo not drawn) | -28.4
CCOc1ncccc1C(=O)Nc1ccc(F)c(F)c1 | -7.94
Cc1ccsc1C(=O)N1CCC(CO)(Cc2ccccc2)CC1 | 17.6
O=C(CSc1nnc2ccccn12)NCc1ccco1 | 22.3
Cc1ccc(C(=O)NCc2ccc(N3CCN(C)CC3)cc2)cc1C | -21.7
COc1cc(OC)cc(-n2nnnc2SCC(=O)N2CCCC2)c1 | -30.2
C=CCn1cccc(C(=O)Nc2ccc(OC)cc2OC)c1=O | 8.74
CN(CC1CCCO1)S(=O)(=O)c1ccc(C(=O)Nc2nc3cc4c(cc3s2)OCO4)cc1 (stereo not drawn) | 9.81
N#C/C(=C\c1ccccc1)C(=O)N1CCN(c2ccccc2F)CC1 | -1.17
O=C(Cn1nnc(-c2cccc(C(F)(F)F)c2)n1)N1CCOCC1 | -8.77
CN(C)c1ccc(/C=N/NC(=S)NCc2ccco2)cc1 | -6.25
CCOc1cccc2cc(C(=O)NCc3ccc(C)cc3)c(=N)oc12 | 10.5
CCc1ccc(OCC2c3cc(OC)c(OC)cc3CCN2C(=S)NCCOC)cc1 (stereo not drawn) | -1.52
CC(C)NC(=O)CCCn1c(=S)[nH]c2cc3c(cc2c1=O)OCO3 | 2.04
CC(C)CNC(=O)COc1ccc2c3c(c(=O)oc2c1)CCC3 | -13.7
O=C(O/N=C(\c1ccccc1)c1ccncc1)c1ccccc1F | 11.2
Cc1ccc(S(=O)(=O)N(C)CCCC(=O)Nc2ccccn2)cc1 | -9.42
CCN(Cc1ccncc1)Cc1cn[nH]c1-c1ccc(OC)cc1F | -3.13
CCOC(=O)c1ccccc1NC(=S)N1CCN(C(=O)c2ccco2)CC1 | 22.1
Cc1cccc(C)c1NC(=O)CNC(=O)c1c(C)nn(C)c1Cl | 19.9
COCCCn1cn[nH]c1=S | 27.2
COc1ccccc1NC(=S)NCc1ccccn1 | 1.54
Cc1cc(OCC(=O)N2CCCC2)ccc1Cl | -0.71

SMILES | hERG current change (%, negative = inhibition) at 10uM [%]
c1ccc2c(c1)ncn2CCCOc1ccc2c(c1)CCC2 | -38.6
CCCCN1CC(=O)N2[C@H]3c4cc(C)ccc4OC[C@@H]3[C@H](C(=O)OCC)[C@]2(C)C1=O | 1.47
COc1ccc(-c2cc(C(=O)NCCN3CCOCC3)no2)cc1OC | 18.9
Cc1occc1C(=O)N/N=C/C1=C(N2CCOCC2)C(=C\c2ccc(Cl)cc2Cl)/CC1 | 27.6
O=C1CCCc2ccccc2N1Cc1cccc(Cl)c1 | -16.3
Fc1ccc(-[n+]2nc(Nc3ccccc3)sc2-c2ccc(OCc3ccccc3)cc2)cc1.[Cl-] | -20.5
Clc1ccc(OCCn2cnc3ccccc32)cc1 | -21.5
C/C(=N/NC(=O)CNC(=O)/C=C/c1ccccc1)c1ccco1 | 2.78
COc1cc(/C=C2/SC(=S)N(CC3CCCO3)C2=O)ccc1O (stereo not drawn) | -5.04
O=C(Cn1cc(C(=O)C(F)(F)F)c2ccccc21)N1CCOCC1 | 16.6
COc1ccc(Nc2nc(N)nc(CSc3nccn3C)n2)cc1 | 4.64
Cc1ccc(-c2noc(C3CCN(C(=O)Nc4ccc(C#N)cc4)CC3)n2)o1 | -49
CC(=O)Nc1cccc(NC(C)=O)n1 | 19.6
Cc1nc(SCC(=O)NCCc2ccccc2)n[nH]1 | 3.66
COCCN(C(=S)Nc1cc(C)cc(C)c1)C(C)c1cccnc1 (stereo not drawn) | -58.4
CCCCCCn1c(=O)c(C(=O)Nc2nc(CC(=O)OCC)cs2)c(O)c2ccccc21 | 8.83
CC1CCCN(C(=O)C2CCC(CNc3c(N4CCCCC4)c(=O)c3=O)CC2)C1 (stereo not drawn) | -8.22
CCCCn1c(=O)[nH]c2ccccc21 | -0.955
COc1ccc(NC(=O)COc2ccccc2F)cc1S(=O)(=O)N1CCCCC1 | 6.02
O=C(NC1CCS(=O)(=O)C1)c1cnccn1 (stereo not drawn) | 26.5
COc1ccc(CCN(Cc2nc3ccccc3c(=O)[nH]2)C(=O)C2CC2)cc1 | -13.4
Cc1cccc(N2CC(C(=O)Nc3ccc(S(=O)(=O)NCC4CCCO4)cc3)CC2=O)c1C (stereo not drawn) | 16.6
